Reference: PubChem BioAssay AID2675 (National Center for Advancing Translational Sciences (NCATS), 2010)
Several values for one entry are separate records, joined by “and”; a condition that tells them apart may be missing. Equal values may be shown once. Among all 280,000 compounds or so, about 100 (0.036%) were called active. The shares of active, inactive and inconclusive entries below differ from those in the screen. Calls follow the shape of the dose curve; as a rule, active = well fitted inhibition curve with a large enough effect in the signal ratio, with a control signal flat (not every such curve was filed as active); inconclusive = small, poorly fitted or top-dose-only effect, or effect the other way, or a change in a side signal; inactive = no such curve, though single readings can be large or run the other way; the % refers to the signal ratio. Where the call is inconclusive, the potency comes from a doubtful curve fit. A note “side channel” means that the fit belongs to a control or component signal, not to the main read-out.

Each compound was assayed against Muscleblind-like protein 1 (Homo sapiens) (UniProt Q9NR56) (assay: qHTS Assay for Inhibitors of MBNL1-poly(CUG) RNA binding). Conditions: TR-FRET MBNL1-His/biotin-(CUG)12 binding, 665/545 ratio; activity change, negative = inhibition: at 57.5 µM (top of the series).
Chain of UniProt Q9NR56 (Q9NR56 whole entry, looked up): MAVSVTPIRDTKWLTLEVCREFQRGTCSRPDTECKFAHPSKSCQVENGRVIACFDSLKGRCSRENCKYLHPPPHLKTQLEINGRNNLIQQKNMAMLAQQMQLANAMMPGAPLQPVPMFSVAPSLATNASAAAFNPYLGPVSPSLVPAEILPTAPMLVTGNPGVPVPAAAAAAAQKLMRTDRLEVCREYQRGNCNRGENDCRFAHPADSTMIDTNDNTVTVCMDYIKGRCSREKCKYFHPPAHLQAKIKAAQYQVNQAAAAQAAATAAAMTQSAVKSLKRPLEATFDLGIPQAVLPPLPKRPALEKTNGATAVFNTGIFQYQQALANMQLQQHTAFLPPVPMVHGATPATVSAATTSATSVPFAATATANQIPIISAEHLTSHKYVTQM
Method in brief: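 TR-FRET between His-tagged MBNL1 and biotin-(CUG)12 RNA, detected with Tb anti-His antibody (0.055 ng/ul) and streptavidin-XL665 (5 nM), 60 min at room temperature. Compounds titrated 92 nM to 58 uM; 665/545 nm ratio normalized to buffer and complex controls.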
% is scaled to controls: 0 for no effect and ±100 for the full control effect; potency is read from the fitted curve at half-maximal effect; tags tell the direction and shape of the fitted curve or compound fluorescence and quenching.

SMILES | Potency | activity change, negative = inhibition
Cc1cccc(-n2c(=O)c(C#N)cc3c(=O)n4ccccc4nc32)c1 | inconclusive: 1.58 µM [quencher, side channel, full curve] | 
CCN1CCCC1CNC(=S)Nc1ccc(C(C)=O)cc1 (centres undefined) | inconclusive: 126 µM [inhibitor, partial curve] | 
CCCC(=O)Nc1ccc(Cl)c(NC(=O)CC)c1 |  | inactive: -5.12%
O=C(O)CSc1cc(C(F)(F)F)nc(-c2ccccn2)n1 |  | inactive: -2.78%
FC(F)(F)c1ccc(/C=N/NC(=S)NC2CCCCC2)cc1 |  | inactive: -1.78%
Cc1cccc(NC(=O)c2cc3ccccc3oc2=O)c1 |  | inactive: 1.49%
Cc1c(Br)c([N+](=O)[O-])nn1CC(=O)NCc1ccco1 | inconclusive: 28.2 µM [quencher, side channel, partial curve] | 
Cc1ccc(C(=O)Nc2ccc(O)cc2C(=O)O)cc1C | inconclusive: 50.1 µM [inhibitor, partial curve] | 
CCOC(=O)N1CCN(c2c(-c3ccc(C)cc3)c(=O)c2=O)CC1 | inconclusive: 15.8 µM [quencher, partial curve] | 
Fc1cccc(CSc2ccc3nnc(-c4cccnc4)n3n2)c1 |  | inactive: 2.79%
CCC(=NCc1ccc(Cl)c(Cl)c1)c1nc(-c2ccco2)oc1O |  | inactive: -2.76% [at 11.5 µM]
Cc1cccc(/C=C2\Sc3ccc(C(=O)NCC4CCCO4)cc3N(C)C2=O)c1 (centres undefined) | inconclusive: 31.6 µM [quencher, side channel, partial curve] | 
Cc1ncc(CO)c(/C=N/Nc2cccc(Cl)n2)c1O | inconclusive: 22.4 µM [quencher, side channel, single point] | 
CC(Oc1ccccc1)C(=O)N=Nc1c(O)[nH]c2ccc([N+](=O)[O-])cc12 (centres undefined) | inconclusive: 10 µM [quencher, side channel, partial curve] | 
CCN(CC)c1ccc(/C=C2/SC(=O)N(C(C)C)C2=O)o1 |  | inactive: 9.78%
CS(=O)(=O)N(CC(=O)NCCSc1ccc(Cl)cc1)c1ccc2c(c1)OCO2 | inconclusive: 11.2 µM [quencher, side channel, partial curve] | 
Fc1cccc(Cl)c1Cn1nnc2c(N3CCC4(CC3)OCCO4)ncnc21 | inconclusive: 4.47 µM [fluorescent, side channel, single point] | 
O=C(O)c1ccc(COc2ccccc2/C=C2/NC(=O)N(c3cccc(Cl)c3)C2=O)cc1 | inconclusive: 28.2 µM [quencher, side channel, single point] | 
CC(C)c1ccc(N2C(=NC(=O)C3CCCO3)SC3CS(=O)(=O)CC32)cc1 (centres undefined) |  | inactive: -2.74%
CCCN1CCC(NC(=O)CCc2nnc(-c3ccccc3)o2)CC1 |  | inactive: -5.91%
C=CCN1N=C(/C=C/c2ccccc2)CCC1=O | inconclusive: 28.2 µM [quencher, side channel, partial curve] | 
O=C(NNC(=S)NC(=O)c1ccc(F)cc1)c1cccnc1 |  | inactive: 9.72%

SMILES | Potency | activity change, negative = inhibition
c1ccc(-n2nc3c(ccc4cnnc43)[nH]2)cc1 |  | inactive: -2.11%
CC1=NN(C(=S)Nc2ccccc2)C(C)(C)C1 | inconclusive: 7.94 µM [inhibitor, single point] | 
O=[N+]([O-])c1cc(-c2nnc(Nc3ccc(O)cc3)c3ccccc23)ccc1N1CCOCC1 | inconclusive: 15.8 µM [quencher, side channel, partial curve] | 
C[n+]1ccc(/C=C/c2ccc(Br)cc2)cc1 | inconclusive: 2 µM [activator, full curve, poor fit] | 
CN(C)/C=N/c1cc(=O)[nH]c(=O)n1CC1CC1 |  | inactive: -14%
NNC(=O)c1ccc(COc2ccc3c(c2)CCC3)o1 | inconclusive: 39.8 µM [fluorescent, side channel, partial curve] | 
COc1ccc(N2CCc3c(C)nc4c(OC)cc(OC)cc4c32)cc1 | inconclusive: 7.94 µM [quencher, partial curve] | 
COc1ccc(C2C(C(=O)c3sc(C)nc3C)=C(O)C(=O)N2CCN2CCOCC2)cc1 (centres undefined) | inconclusive: 28.2 µM [quencher, side channel, single point] | 
CC1(C)Cc2ccccc2-c2[nH]c(=S)[nH]c(=O)c21 | inconclusive: 22.4 µM [fluorescent, side channel, partial curve] | 
COc1ccc(NC(=O)Nc2ccccc2SC)cc1OC | inconclusive: 79.4 µM [inhibitor, single point] | 
O=C(COC(=O)c1cccs1)c1ccc2ccccc2c1 | inconclusive: 31.6 µM [quencher, side channel, partial curve] | 
Cn1c(-c2cccc([N+](=O)[O-])c2)cnc1NCc1cccc([N+](=O)[O-])c1 | inconclusive: 14.1 µM [quencher, side channel, partial curve] | 
COc1cccc(C(=O)CN2CCN(S(=O)(=O)c3cccc([N+](=O)[O-])c3)CC2)c1 | inconclusive: 12.6 µM [quencher, side channel, partial curve] | 
O=C(CN1CCOCC1)Nc1nc2ccc([N+](=O)[O-])cc2s1 | inconclusive: 6.31 µM [quencher, side channel, partial curve] | 
CC(C)CCNC(=O)C(C)N(C(=O)c1snc(C(N)=O)c1N)c1cnc2ccccc2c1 (centres undefined) | inconclusive: 15.8 µM [quencher, side channel, partial curve] | 
CCN(CC)c1ccc(NC(=O)CCCCCN2C(=O)c3ccccc3C2=O)cc1 |  | inactive: 11.4%
CC(C)(C)S(=O)(=O)c1cnc2c(-c3ccc(Cl)cc3)cnn2c1N |  | inactive: -1.52%
Nc1nnc(/C=C/c2cccc([N+](=O)[O-])c2)s1 | inconclusive: 3.16 µM [quencher, side channel, full curve] | 
Cc1cc(NC(=O)CCC(=O)N(C(C(=O)NC(C)(C)C)c2ccccc2Cl)C(C)(C)C)no1 (centres undefined) |  | inactive: -0.818%
CCCOC(=O)c1ccc(-c2ccc(C=O)o2)cc1 | inconclusive: 11.2 µM [quencher, partial curve] | 
CCCNC(=O)CSc1nnc(-c2ccccc2Br)n1-c1cccc(C(F)(F)F)c1 | inconclusive: 200 µM [inhibitor, partial curve] | 
Cc1ccc(C(=O)c2ccc([N+](=O)[O-])cc2)c(C)c1 | inconclusive: 14.1 µM [quencher, partial curve] | 

SMILES | Potency | activity change, negative = inhibition
Cc1noc(C)c1C(=O)Nc1nc(-c2ccc([N+](=O)[O-])cc2)cs1 |  | inactive: 54.2%
O=C1c2cc(S(=O)(=O)NCCCO)ccc2-c2ccc(S(=O)(=O)NCCCO)cc21 | inconclusive: 11.2 µM [quencher, side channel, partial curve] | 
O=C(NCC(=O)N(c1cccnc1)C(C(=O)NC1CCCCC1)c1ccccc1F)c1ccco1 (centres undefined) |  | inactive: -1.27%
COc1ccccc1N1CCN(C(=O)c2ccc3nc(-c4ccco4)c(-c4ccco4)nc3c2)CC1 | inconclusive: 28.2 µM [quencher, side channel, single point] | 
CC(=O)/C=C(\C)N=Nc1c(O)[nH]c2ccccc12 | inconclusive: 25.1 µM [quencher, single point] | 
Cn1c(-c2cccc([N+](=O)[O-])c2)cnc1NCc1ccc(C#N)cc1 | inconclusive: 15.8 µM [quencher, side channel, partial curve] | 
CC(/C=C1\SC(=O)N(CCCC(=O)O)C1=O)=C\c1ccccc1 | inconclusive: 20 µM [quencher, side channel, partial curve] | 
COc1cccc(NC(=O)c2sc3ncn(CC(=O)N4CCN(c5ccccn5)CC4)c(=O)c3c2C)c1 |  | inactive: 12.2%
CCN(CC)C(=O)C(Oc1ccc(C)nc1[N+](=O)[O-])c1ccccc1 (centres undefined) | inconclusive: 28.2 µM [quencher, side channel, single point] | 
Cc1ccc(N(CC(=O)Nc2ccccc2C(=O)N2CCOCC2)S(C)(=O)=O)cc1 | inconclusive: 79.4 µM [inhibitor, partial curve] | 
CCOC(=O)C(=O)NCc1ccc(/C=C2/N=C(C)C(C(=O)OCC)=C2O)o1 | inconclusive: 15.8 µM [quencher, side channel, partial curve] | 
CCN(CC)c1ccc(NC(=O)CN2CCN(S(=O)(=O)c3cc(Cl)ccc3OC)CC2)cc1 |  | inactive: -1.05%
Cc1nc(-c2coc3cc(C)c(N=O)c(O)c3/c2=N\N)cs1 | inconclusive: 25.1 µM [quencher, side channel, partial curve] | 
CCc1nn2c(N)c(/C=C3\C=Nc4ccccc43)c(=O)nc2s1 | inconclusive: 14.1 µM [quencher, side channel, partial curve] and inconclusive: 20 µM [quencher, side channel, single point] | 
Cc1cccc(C)c1NS(=O)(=O)c1ccc(-c2ccc(=O)[nH]n2)o1 | inconclusive: 39.8 µM [quencher, side channel, single point] | 
CCC(C)C(=O)Nc1nnc(CCc2ccccc2)s1 (centres undefined) |  | inactive: -5.56%
CC1(C)CC(=O)C2=C(C1)Nc1ccccc1S2 | inconclusive: 28.2 µM [quencher, side channel, single point] | 
CCCN(CC(=O)Nc1ccc(Cl)cc1Cl)C(=O)/C=C/c1ccco1 | inconclusive: 31.6 µM [fluorescent, side channel, partial curve, poor fit] | 
COc1cc(C2C(=O)c3ccccc3C2=O)ccc1O | inconclusive: 4.47 µM [quencher, side channel, partial curve] | 
CC(C)CC(=O)c1c[nH]c(C(=O)NCCCN2CCOCC2)c1 | inconclusive: 8.91 µM [quencher, side channel, single point] | 
